± gives the standard deviation of the averaged measurements. This is one part of the list.

The subject of this assay is PfAP2-G AP2 domain (GST-tagged). Description: gcPBM binding intensity (ln(normalized median fluorescence intensity)); higher = stronger DNA binding. An outline of the steps:
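An Agilent 4 × 180k array carrying primer-extended double-stranded 36-bp intergenic genomic probes and negative controls received GST-tagged P. falciparum DNA-binding domains expressed in E. coli, about 25 μg on average, for 1 h. The binding buffer contained 1× PBS, 1% milk, 0.2 mg/ml BSA, 0.5% salmon testes DNA and 0.03% Triton X-100. Binding intensity is the top Masliner-normalised natural-log median intensity across replicate spots of either probe orientation, read after Alexa488 anti-GST antibody staining and a 488 nm scan.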
With “AAAAAAAAAAAAAAGGAACACACAAGTAACAATAAA [CACACA_site8792]”, the “gcPBM binding intensity (ln)” value stood at 10.4 ± 0.32.
With “ATTCACATACATTACTTACACACCATATTAATATAT [CACACA_site459]” the figure was 10.29 ± 0.021; with “TAAAAAATAAGATATACACACATATATATATATATA [CACACA_site2324]”, 9.91 ± 0.4.
With “AATTATACTTCCTTCACACAGTTACATCATATATTA [CACACA_site5942]”, the “gcPBM binding intensity (ln)” value turned out to be 10.2 ± 0.2.
As to “TATTTTGAAAAAGTTGCACACAAAATTTAAAAAAAA [CACACA_site8470]”, the “gcPBM binding intensity (ln)” value came to 10.3 ± 0.3.
Consider “CATTTAAATTATAAGTGTACACGATCATATTTCATC [XGTACX_site349]”, for which the “gcPBM binding intensity (ln)” value stood at 11.6 ± 0.72.
The value for “ATAATGATATATTATAAACACACAAAGATGAATATA [CACACA_site8914]” was 9.91 ± 0.14; that for “AAACAAAGAAAGAACACACATACACAATATACCTAC [CACACA_site2835]” was 10.11 ± 0.057; that for “ATATATGTGTATGTATGTACTCATTTTTGTATATAT [XGTACX_site490]” was 11.6 ± 1.
With “TTATATATTTATATTTGTACGTATAAATTTTTTTTT [XGTACX_site2833]” the figure was 11.5 ± 0.81.
“GATGGAAGGTGAAAGCGTACTTATTATAGTAATATA [XGTACX_site303]”: the “gcPBM binding intensity (ln)” value came out at 11.1 ± 0.75.
With “AGGTACTTTTTTAAAACACACATATAATATATACAC [CACACA_site1065]” the figure was 11.2 ± 0.85; with “TGTAATAATCTTACATGTACATACATATATTATATA [XGTACX_site4012]”, 11 ± 0.47.
With “CCAACATTTTTTAGAAGTACATTTTTATATTTATTA [XGTACX_site5179]” the figure was 11.3 ± 0.83; with “AAATAAAAACATAACAGTACAGTTAACATTTTTATA [XGTACX_site3479]”, 10.7 ± 0.52; with “TATATATATATATATGTACACACATATATACCTTTC [CACACA_site8854]”, 11.3 ± 0.71.
The value for “TATATAATATATATAGTGCATAAGTTCAAAAGAATA [GTGCAC_site9805]” was 10.1 ± 0.14.
For “GCATATTTTATAATTTTACACACCATATAAAATAAT [CACACA_site8904]”, the “gcPBM binding intensity (ln)” value came out at 10.12 ± 0.042.
For the sequence “TACATATTTTTTATGTGTACATATTTTTTATGTGTA [XGTACX_site443]”, the “gcPBM binding intensity (ln)” value turned out to be 11.4 ± 0.76.
The value for “ACAATCCTAACGACATGTACAAATATATATATTTTT [XGTACX_site7335]” was 10.7 ± 0.42; that for “TACATTCATGTGTATTGTACAAACTATTTTATAATA [XGTACX_site7744]” was 10.8 ± 0.45.
With “TTATATGCATAAAAACGTACAAAAATGTATTCATGT [XGTACX_site2215]” the figure was 11.2 ± 0.83; with “TTTTTTTTTTTTTCAAGTACATAACTTACCCCTTTT [XGTACX_site6207]”, 11.2 ± 0.96; with “AAACGATTACTGTGTACACACATAGTTATAAACATA [CACACA_site5195]”, 11.5 ± 0.72.
With “GAATGTTAACGTTGCACACAAAAAAAAAGTATACAT [CACACA_site2415]” the figure was 10.4 ± 0.26.
For the sequence “TTACATAATATATGTACACACGCAAATACTTAGAAT [CACACA_site320]”, the “gcPBM binding intensity (ln)” value was determined as 11.5 ± 0.86.
Regarding “GTTATAGAAGCATTCACACACACACCCACATACACA [CACACA_site1465]”, the “gcPBM binding intensity (ln)” value was 10.5 ± 0.61.
The value for “TTTTTTAATAATAGGAAAATGAATATTATATCGAAT [TGCATGCA_negctrl_site543]” was 9.61 ± 0.26.
With “AGGATATGCAGACACACACACATATATATATATATA [CACACA_site2201]”, the “gcPBM binding intensity (ln)” value worked out at 10.4 ± 0.64.
“ATATATATATTCCACACACACACAAAAAAAAAAAAA [CACACA_site3648]”: the “gcPBM binding intensity (ln)” value stood at 10.1 ± 0.71.
Regarding “TTTTTTTTTTTTTTTGCACACAGGGTGTAGGACAAG [CACACA_site2842]”, the “gcPBM binding intensity (ln)” value worked out at 11 ± 1.
As for “TTATAATATCTATATATCTTTTACATTTATAAGTTT [CACACA_negctrl_site1473]”, the “gcPBM binding intensity (ln)” value was determined as 9.58 ± 0.38.
With “TATAATAATATTAACACACGTACAAAAGCAAACAAC [CACACA_site3494]” the figure was 11.4 ± 0.79; with “CATTTGATAAGATACACACACAAGGAAAAAAATAAA [CACACA_site350]”, 10.4 ± 0.22; with “TGCAGTCTGGAGAAAAGTACATAGTATCTGGTATCT [XGTACX_site2545]”, 11.3 ± 0.98.
“TATGGTGTAATTTAGTGTATTATATTATTTTGGTTG [GTGCAC_negctrl_site445]”: the “gcPBM binding intensity (ln)” value is 10.05 ± 0.014.
“GTCTATTCAAAAAAGTGTACGGACATATAAACATAC [XGTACX_site6516]”: the “gcPBM binding intensity (ln)” value was 11.6 ± 0.83.
The value for “TTAGCTATGATATATACACACCAACGAACGAAGAAA [CACACA_site6657]” was 10.1 ± 0.19; that for “AAAGATGTTATATATATGTATATATATATGTAATAT [TGCATGCA_negctrl_site386]” was 9.59 ± 0.16; that for “CATATAATTATATATCGTACATATTAATATAATTAC [XGTACX_site401]” was 10.8 ± 0.54.
With “AGTATACAGATATATACACACATATATTTATTTATA [CACACA_site6279]” the figure was 9.81 ± 0.071.
The value for “ATTTATTTATTTATTTGTACATATAAATATATCAAA [XGTACX_site7383]” was 10.8 ± 0.49.
Take “TATATTTATTTATACACATGCATATTTTAAGGGCTC [TGCATGCA_site885]”: the “gcPBM binding intensity (ln)” value is 9.965 ± 0.021.
The value for “ATATATATATATATATGTACTTATAAGGTATATTTA [XGTACX_site3327]” was 11.1 ± 0.68; that for “AGATATAGGAAAATAATATATATATATTTTTTTTTT [CACACA_negctrl_site461]” was 9.54 ± 0.15; that for “AAAAAGAAAAAACTTACACACATATATACAGACATG [CACACA_site550]” was 10.19 ± 0.057.
With “TTATAATCCATAATTGCACACAATATATTCATATTT [CACACA_site3916]” the figure was 9.93 ± 0.13; with “AAAAAAAAATAAATAAATATATATAATATTTATGTT [GTGCAC_negctrl_site520]”, 9.39 ± 0.15.
The value for “TGGTTAATATGTGAAAGTACATATTATATTAAAATG [XGTACX_site2636]” was 11.1 ± 0.58; that for “TACAGATAATATATTGCACACGTCAGAATAATATAG [CACACA_site5036]” was 10.06 ± 0.049.
For the sequence “TATAACTTTTTTATTACACACCTATGCAATATTATA [CACACA_site6570]”, the “gcPBM binding intensity (ln)” value was 9.96 ± 0.071.
The value for “ATAAAATAAGATCTTTTTTTTTTTTTTTTCTTTTCT [XGTACX_negctrl_site73]” was 9.485 ± 0.078; that for “AACAAATAAATAAATAAAAAGCAAATATGTCTATAT [GTGCAC_negctrl_site414]” was 9.71 ± 0.23.
With “ACTTATTATTAATATTGTACTCTTGAAAATTGTGGA [XGTACX_site6315]” the figure was 11.3 ± 0.74.
The value for “AATACACAAATATATTGTACATATATATATATATAT [XGTACX_site2440]” was 11 ± 0.69; that for “ATATATATTTTTTAAACACACACATAAATATTTGTG [CACACA_site8936]” was 10.35 ± 0.092.
